Measurements published in PubChem BioAssay AID1745853 (National Center for Advancing Translational Sciences (NCATS), 2022).
Several values for one entry are separate records, joined by “and”; a condition that tells them apart may be missing. Equal entries are not always repeated. The list shows a part of the results. Further columns of the screen follow, without active or inactive calls.

How the values were obtained:
Experiment in all cases: Primary Screen for Target Class Profiling of Small Molecule Inhibitors of Methyltransferases
[1] = biological target: Glycine N-methyltransferase (Homo sapiens) (UniProt Q14749); conditions: purified enzyme, MTase-Glo SAH luminescence; measured here: GNMT inhibition; at 40 µM; stronger effect = lower value
Method in brief: (§1)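 Each enzyme was reacted with SAM and its substrate, with compounds tested once at 40 uM; SAH formed was read by MTase-Glo luminescence.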

[2] = biological target: Guanidinoacetate N-methyltransferase (Homo sapiens) (UniProt Q14353); conditions: purified enzyme, MTase-Glo SAH luminescence; measured here: GAMT inhibition; at 40 µM; stronger effect = lower value
Method in brief: as §1

[3] = biological target: Histamine N-methyltransferase (Homo sapiens) (UniProt P50135); conditions: purified enzyme, MTase-Glo SAH luminescence; measured here: HNMT inhibition; at 40 µM; stronger effect = lower value
Method in brief: as §1

[4] = biological target: Nicotinamide N-methyltransferase (Homo sapiens) (UniProt P40261); conditions: purified enzyme, MTase-Glo SAH luminescence; measured here: NNMT inhibition; at 40 µM; stronger effect = lower value
Method in brief: as §1

[5] = biological target: Phenylethanolamine N-methyltransferase (Homo sapiens) (UniProt P11086); conditions: purified enzyme, MTase-Glo SAH luminescence; measured here: PNMT inhibition; at 40 µM; stronger effect = lower value
Method in brief: as §1
On the % scale 0 is the no-effect control and ±100 the full control effect.

CC(C)c1cc2c(c(O)c1O)[C@@]13CCCC(C)(C)[C@@H]1[C@H](OC3=O)C2=O
activity change, negative = inhibition [1]: -6.07% | activity change, negative = inhibition [2]: -6.81% | activity change, negative = inhibition [3]: 0.349% | activity change, negative = inhibition [4]: -23.1% | activity change, negative = inhibition [5]: -13.4%

CCCn1c(=O)c2cc(Cl)ccc2n2c(SCC(=O)NCc3ccc(C)cc3)nnc12
activity change, negative = inhibition [1]: 3.31% | activity change, negative = inhibition [2]: 3.96% | activity change, negative = inhibition [3]: 10.6% | activity change, negative = inhibition [4]: 5.24% | activity change, negative = inhibition [5]: 4.33%

CC1C2=CC(=O)OC2(O)CC2C1C(O)CC1C(C)(CO)CCCC21C (stereo not drawn)
activity change, negative = inhibition [1]: 1.56% | activity change, negative = inhibition [2]: 5.23% | activity change, negative = inhibition [3]: 4.81% | activity change, negative = inhibition [4]: -7.97% | activity change, negative = inhibition [5]: -2.42%

CC(C)Cn1c(=O)c2ccc(C(=O)NC3CCCC3)cc2n2c(=O)n(Cc3cccc(F)c3)nc12
activity change, negative = inhibition [1]: 3.44% | activity change, negative = inhibition [2]: 0% | activity change, negative = inhibition [3]: 7.34% | activity change, negative = inhibition [4]: 0.341% | activity change, negative = inhibition [5]: 4.42%

Cc1ccc(CCNC(=O)c2cc3n(n2)CC(C)(C(=O)NC2CCCCC2)N(C)C3=O)cc1 (stereo not drawn)
activity change, negative = inhibition [1]: 2.14% | activity change, negative = inhibition [2]: 2.75% | activity change, negative = inhibition [3]: 1.75% | activity change, negative = inhibition [4]: -2.8% | activity change, negative = inhibition [5]: -0.981%

CCOC(=O)Cc1ccc(NC(=O)N2CCn3cccc3C2C(C)C)cc1 (stereo not drawn)
activity change, negative = inhibition [1]: 15.5% | activity change, negative = inhibition [2]: 2.06% | activity change, negative = inhibition [3]: 10.2% | activity change, negative = inhibition [4]: 6.81% | activity change, negative = inhibition [5]: 11.2%

CCOc1ccc(N2C(=O)c3cc(C(=O)OC)nn3CC2(C)C(=O)NC2CCCCC2)cc1 (stereo not drawn)
activity change, negative = inhibition [1]: -0.907% | activity change, negative = inhibition [2]: 2.87% | activity change, negative = inhibition [3]: 6.54% | activity change, negative = inhibition [4]: 2.28% | activity change, negative = inhibition [5]: 1.04%

Cc1ccc(C)c(S(=O)(=O)n2cnc3ccccc32)c1
activity change, negative = inhibition [1]: 7.69% | activity change, negative = inhibition [2]: 6.98% | activity change, negative = inhibition [3]: 5.97% | activity change, negative = inhibition [4]: -5.84% | activity change, negative = inhibition [5]: 4.81%

CCN(Cc1ccccc1)C(=O)CCC[C@H]1NC[C@@H]2CC1CN(Cc1ccccc1)C2
activity change, negative = inhibition [1]: -6.4% | activity change, negative = inhibition [2]: 0.07% | activity change, negative = inhibition [3]: -44.8% | activity change, negative = inhibition [4]: -18.9% | activity change, negative = inhibition [5]: 10.4%

CC1CCC(NC(=O)CCc2nnc3n(CCc4ccccc4)c(=O)c4ccccc4n23)CC1 (stereo not drawn)
activity change, negative = inhibition [1]: -6.41% | activity change, negative = inhibition [2]: 0% | activity change, negative = inhibition [3]: 4.14% | activity change, negative = inhibition [4]: 7.6% | activity change, negative = inhibition [5]: -3.34%

CC1(C(=O)NC2CCCCC2)Cn2c(cc3occc32)C(=O)N1CCN1CCCCCC1 (stereo not drawn)
activity change, negative = inhibition [1]: 2.84% | activity change, negative = inhibition [2]: 0% | activity change, negative = inhibition [3]: -7.29% | activity change, negative = inhibition [4]: 3.88% | activity change, negative = inhibition [5]: 0.227%

CCCCc1ccc(C(=O)Nc2cc(-c3ccc(Cl)cc3)nn2-c2ccc(Cl)cc2)cc1
activity change, negative = inhibition [1]: -1.01% | activity change, negative = inhibition [2]: -38.3% | activity change, negative = inhibition [3]: -5.41% | activity change, negative = inhibition [4]: -39.2% | activity change, negative = inhibition [5]: -18.5%

CCc1cccc(N2C(=O)CSc3c(c4ccccc4n3C)C2C(=O)NCc2ccc(F)cc2)c1 (stereo not drawn)
activity change, negative = inhibition [1]: -1.71% | activity change, negative = inhibition [2]: 4.07% | activity change, negative = inhibition [3]: 10.8% | activity change, negative = inhibition [4]: 5.58% | activity change, negative = inhibition [5]: -4.1%

CCOC(=O)c1cc(Nc2ccccc2)c2cc(Cl)ccc2n1
activity change, negative = inhibition [1]: -14.2% | activity change, negative = inhibition [2]: 0.995% | activity change, negative = inhibition [3]: -2.27% | activity change, negative = inhibition [4]: -1.92% | activity change, negative = inhibition [5]: -7.12%

Cc1c(Cl)cccc1N1C(=O)c2cc3occc3n2CC1(C)C(=O)NC1CCCCCC1 (stereo not drawn)
activity change, negative = inhibition [1]: -8.01% | activity change, negative = inhibition [2]: 1.92% | activity change, negative = inhibition [3]: -5.95% | activity change, negative = inhibition [4]: -7.08% | activity change, negative = inhibition [5]: -5.69%

O=C(Nc1ccc2c(c1)CCN(Cc1ncn[nH]1)C2)c1ccccc1-c1ccc(C(F)(F)F)cc1
activity change, negative = inhibition [1]: 6.59% and -6.12% | activity change, negative = inhibition [2]: 13.2% and 11.2% | activity change, negative = inhibition [3]: 5.46% and -2.13% | activity change, negative = inhibition [4]: -4.47% and -16.5% | activity change, negative = inhibition [5]: 3.33% and -8.47%

NCc1ccc(Oc2ccc(F)c(Cl)c2)cc1
activity change, negative = inhibition [1]: -6.75% | activity change, negative = inhibition [2]: 0.767% | activity change, negative = inhibition [3]: -2.36% | activity change, negative = inhibition [4]: -20.6% | activity change, negative = inhibition [5]: -27.9%

N#Cc1cc([N+](=O)[O-])c2sc(C(N)=O)[n+]([O-])c2c1
activity change, negative = inhibition [1]: -8.68% | activity change, negative = inhibition [2]: 10.2% | activity change, negative = inhibition [3]: 3.63% | activity change, negative = inhibition [4]: -4.08% | activity change, negative = inhibition [5]: 3.92%

CC1(C(=O)NC2CCCCCCC2)Cn2c(cc3sccc32)C(=O)N1CCc1ccc(Cl)cc1 (stereo not drawn)
activity change, negative = inhibition [1]: -2.66% | activity change, negative = inhibition [2]: 1.67% | activity change, negative = inhibition [3]: -0.753% | activity change, negative = inhibition [4]: 0.884% | activity change, negative = inhibition [5]: -4.23%

Cc1noc(C)c1C(=O)N1CCN(S(=O)(=O)c2ccc(Cl)nc2)C(=O)C1
activity change, negative = inhibition [1]: -6.1% | activity change, negative = inhibition [2]: -2.34% | activity change, negative = inhibition [3]: -1.03% | activity change, negative = inhibition [4]: 0.174% | activity change, negative = inhibition [5]: 3.85%

CC(CN1C(=O)c2cc3occc3n2CC1(C)C(=O)NC1CCCCCC1)c1ccccc1 (stereo not drawn)
activity change, negative = inhibition [1]: 2.4% | activity change, negative = inhibition [2]: 0.684% | activity change, negative = inhibition [3]: 8.17% | activity change, negative = inhibition [4]: -2.69% | activity change, negative = inhibition [5]: -0.748%

Cc1[nH]c(-c2ccccc2)nc1C(=O)N1CCCC[C@H](N(C)C)C1
activity change, negative = inhibition [1]: 0.748% | activity change, negative = inhibition [2]: -2.07% | activity change, negative = inhibition [3]: -14.2% | activity change, negative = inhibition [4]: -0.963% | activity change, negative = inhibition [5]: -12.5%

CC(C)CN(CC1CN(C(=O)c2ccccc2)CCO1)C(=O)c1cccc2ccccc12 (stereo not drawn)
activity change, negative = inhibition [1]: -4.06% | activity change, negative = inhibition [2]: -1.25% | activity change, negative = inhibition [3]: 1.67% | activity change, negative = inhibition [4]: -4.62% | activity change, negative = inhibition [5]: -4.65%

CCCC1c2cccn2CCN1C(=O)NCC1CCC(C(=O)OCC)CC1 (stereo not drawn)
activity change, negative = inhibition [1]: -4.25% | activity change, negative = inhibition [2]: 1.27% | activity change, negative = inhibition [3]: -10.9% | activity change, negative = inhibition [4]: -3.3% | activity change, negative = inhibition [5]: -1.14%

CS(=O)(=O)CCNCc1nc(-c2ccc3ncnc(Nc4ccc(OCc5cccc(F)c5)c(Cl)c4)c3c2)cs1
activity change, negative = inhibition [2]: 1.47% | activity change, negative = inhibition [4]: -3.94% | activity change, negative = inhibition [5]: 4.85%

CN1CCN(S(=O)(=O)c2cc(C(=O)O)cc(-c3ccncc3)c2)CC1
activity change, negative = inhibition [1]: -1.43% | activity change, negative = inhibition [2]: 0.536% | activity change, negative = inhibition [3]: 2.54% | activity change, negative = inhibition [4]: -2.26% | activity change, negative = inhibition [5]: 12.8%

CN1C(=O)c2cc(C(=O)NCc3ccco3)nn2CC1(C)C(=O)NCc1ccccc1 (stereo not drawn)
activity change, negative = inhibition [1]: 3.65% | activity change, negative = inhibition [2]: 4.87% | activity change, negative = inhibition [3]: 1.82% | activity change, negative = inhibition [4]: 4.25% | activity change, negative = inhibition [5]: 2.02%

COCCN1CC(C(=O)NCc2sc3ccccc3c2Cl)CCC1=O (stereo not drawn)
activity change, negative = inhibition [1]: -1.77% | activity change, negative = inhibition [2]: 1.98% | activity change, negative = inhibition [3]: 0.644% | activity change, negative = inhibition [4]: -2.38% | activity change, negative = inhibition [5]: -8.39%

Cc1noc2c(NCCCn3ccnc3)cc(-c3ccccn3)nc12
activity change, negative = inhibition [1]: -15.8% | activity change, negative = inhibition [2]: -7.65% | activity change, negative = inhibition [3]: -29.9% | activity change, negative = inhibition [4]: -20.1% | activity change, negative = inhibition [5]: -3.53%

Cn1ccnc1C(O)c1cc2n(n1)CCN(S(=O)(=O)C1CC1)C2 (stereo not drawn)
activity change, negative = inhibition [1]: -1.76% | activity change, negative = inhibition [2]: -2.98% | activity change, negative = inhibition [3]: -0.971% | activity change, negative = inhibition [4]: -3.41% | activity change, negative = inhibition [5]: -2.39%
